Variants at the floor of the assay are shown more often than the library holds them.
B1: tRNA (parent)
chain: CUCUCGGUAGCCAAGUUGGUUUAAGGCGCAAGACUUUAAUUUAUCACUACGAAAUCUUGAGAUCGGGCGUUCGACUCGCCCCCGGGAGAUUUUUUCCUCGAGCAA

Variants of: B1
Experiment: nonsense suppression (GFP-seq) (ratio to wild type); higher = more function; SUP4oc tRNA, yeast GFP reporter sort-seq
How it was run: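 Yeast were grown in raffinose/galactose medium with 80 mg/L adenine, each strain bearing a genome-integrated ochre-suppressor tRNA variant from a ~3% random-mutation library, a galactose-driven GFP ochre reporter, and RFP. After sorting into GFP/RFP bins, every bin was sequenced on an Illumina platform at phred ≥30. The GFPSEQ value, a measure of nonsense suppression, is the weighted bin median GFP/RFP relative to the unmutated parent tRNA, using each variant's estimated cell share per bin as the weight. Only variants with ≥100 reads and ≥30 cells were included.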

| Variant | nonsense suppression |
| --- | --- |
| U2C C5A A33G | ≤ 0.026 |
| U2C C5A C75U C83A | ≤ 0.026 |
| U2C C11A | ≤ 0.026 |
| U2C C11G A24G G84U | ≤ 0.026 |
| U2C C11G C12A C27U G66C | ≤ 0.026 |
| U2C C11G U35G U57C | ≤ 0.026 |
| U2C C11U | ≤ 0.026 |
| U2C C11U A33C | ≤ 0.026 |
| U2C C11U C79A | ≤ 0.026 |
| U2C C12G A31U U35G | ≤ 0.026 |
| U2C C27A G73C | ≤ 0.026 |
| U2C C27U A31G U57C | ≤ 0.026 |
| U2C C27U C83G | ≤ 0.026 |
| U2C C27U U55A C75A | ≤ 0.026 |
| U2C C29A A60C G67A | ≤ 0.026 |
| U2C C29U A62C G69U G88U | ≤ 0.026 |
| U2C C34U | ≤ 0.026 |
| U2C C34U G86C | ≤ 0.026 |
| U2C C56G | ≤ 0.026 |
| U2C C56G U71G | ≤ 0.026 |
| U2C C56U G59A A87U | ≤ 0.026 |
| U2C C68A C75A | ≤ 0.026 |
| U2C C68G | ≤ 0.026 |
| U2C C72A | ≤ 0.026 |

| Variant | nonsense suppression |
| --- | --- |
| U2C G6C A24G | ≤ 0.026 |
| U2C G6C C12U A60G G65A | ≤ 0.026 |
| U2C G6C G61A G86A | ≤ 0.026 |
| U2C G6U A31C U71G A74G | ≤ 0.026 |
| U2C G10A | ≤ 0.026 |
| U2C G10C C72G G84U A89U | ≤ 0.026 |
| U2C G15A | ≤ 0.026 |
| U2C G15A C34U C56A | ≤ 0.026 |
| U2C G15A U58G U70C G85A | ≤ 0.026 |
| U2C G15U | ≤ 0.026 |
| U2C G15U G28U A31C | ≤ 0.026 |
| U2C G18A G25C C29G U58G | ≤ 0.026 |
| U2C G18C C29U G65A G73A | ≤ 0.026 |
| U2C G18U C68A | ≤ 0.026 |
| U2C G19C U35G G78U | ≤ 0.026 |
| U2C G25U A30C G59U A62U | ≤ 0.026 |
| U2C G26C C75U | ≤ 0.026 |
| U2C G28U A74U C83A | ≤ 0.026 |
| U2C G32U | ≤ 0.026 |
| U2C G61C | 0.0279 |
| U2C G61U | 0.122 |
| U2C G65C | ≤ 0.026 |
| U2C G65C G88C | ≤ 0.026 |
| U2C G66A A87U | ≤ 0.026 |

| Variant | nonsense suppression |
| --- | --- |
| U2C G66A C80A | ≤ 0.026 |
| U2C G67A U71A A74C G88C A89G | ≤ 0.026 |
| U2C G67U | ≤ 0.026 |
| U2C G69U C75U | ≤ 0.026 |
| U2C G73C U76A | ≤ 0.026 |
| U2C G78A | 0.0386 |
| U2C G84A | ≤ 0.026 |
| U2C G85C | ≤ 0.026 |
| U2C G86C | ≤ 0.026 |
| U2C U4G A13U U22C A33G | ≤ 0.026 |
| U2C U4G U17A A87G G88A | ≤ 0.026 |
| U2C U8A G19A G67C G85U | ≤ 0.026 |
| U2C U8G G26A | ≤ 0.026 |
| U2C U17G A33G | ≤ 0.026 |
| U2C U20A | ≤ 0.026 |
| U2C U20A G78A | ≤ 0.026 |
| U2C U21A G28C A30G U55A G69C | ≤ 0.026 |
| U2C U21C G66U C77A | ≤ 0.026 |
| U2C U21G | ≤ 0.026 |
| U2C U22C C64A A74U G88U | ≤ 0.026 |
| U2C U35A U57C A62C | ≤ 0.026 |
| U2C U55A | ≤ 0.026 |
| U2C U55C U58G | ≤ 0.026 |
| U2C U57A U63A C72G G73A C82G | ≤ 0.026 |

| Variant | nonsense suppression |
| --- | --- |
| U2C U58A | ≤ 0.026 |
| U2C U58G U70C | ≤ 0.026 |
| U2C U63C U71C G86A | ≤ 0.026 |
| U2C U71A U76A | ≤ 0.026 |
| U2C U76A | ≤ 0.026 |
| U2G | ≤ 0.026 |
| U2G A9C U35A | ≤ 0.026 |
| U2G A13G | ≤ 0.026 |
| U2G A13G A24G G59U C83A G84A | ≤ 0.026 |
| U2G A13G G26U C56G | ≤ 0.026 |
| U2G A13U G65A | ≤ 0.026 |
| U2G A14G G65C | ≤ 0.026 |
| U2G A14G U17A G73A | ≤ 0.026 |
| U2G A23C | ≤ 0.026 |
| U2G A23C C27G A62C C75U | ≤ 0.026 |
| U2G A23G G66A | ≤ 0.026 |
| U2G A24U G61U A74C C81A | ≤ 0.026 |
| U2G A24U U70A C83A G88C | ≤ 0.026 |
| U2G A30G U57A U63C | ≤ 0.026 |
| U2G A31C G59A | ≤ 0.026 |
| U2G A31G U63G C80G C81A | ≤ 0.026 |
| U2G A33C | ≤ 0.026 |
| U2G A33C A60U G73C | ≤ 0.026 |
| U2G A33G | ≤ 0.026 |

| Variant | nonsense suppression |
| --- | --- |
| U2G A33U C56A | ≤ 0.026 |
| U2G A60G | ≤ 0.026 |
| U2G A62U C77U G85A | ≤ 0.026 |
| U2G C3A G65U | ≤ 0.026 |
| U2G C3A U4C U35G | ≤ 0.026 |
| U2G C3G | ≤ 0.026 |
| U2G C3G A14C C56U | ≤ 0.026 |
| U2G C3U A33G | ≤ 0.026 |
| U2G C3U A60U | ≤ 0.026 |
| U2G C3U C72U | ≤ 0.026 |
| U2G C3U G19A G66A | ≤ 0.026 |
| U2G C5A A30G | ≤ 0.026 |
| U2G C5G | ≤ 0.026 |
| U2G C5G A33G | ≤ 0.026 |
| U2G C5G C11U A24C | ≤ 0.026 |
| U2G C5U A31C U63A | ≤ 0.026 |
| U2G C11G U17G A62U | ≤ 0.026 |
| U2G C11U A23C A89C | ≤ 0.026 |
| U2G C11U C56A | ≤ 0.026 |
| U2G C11U G59U | ≤ 0.026 |
| U2G C12A | ≤ 0.026 |
| U2G C12A C29U C64G | ≤ 0.026 |
| U2G C12G A13C G25U A33C A74U | ≤ 0.026 |
| U2G C12U A89C | ≤ 0.026 |

| Variant | nonsense suppression |
| --- | --- |
| U2G C27A U57C | ≤ 0.026 |
| U2G C27U G32C | ≤ 0.026 |
| U2G C64G | ≤ 0.026 |
| U2G C75A G84C | ≤ 0.026 |
| U2G C75A G86A | ≤ 0.026 |
| U2G C75A G88C | ≤ 0.026 |
| U2G C77G | ≤ 0.026 |
| U2G C79G | ≤ 0.026 |
| U2G C79G C80A | ≤ 0.026 |
| U2G C81G | ≤ 0.026 |
| U2G C83A | ≤ 0.026 |
| U2G G6A A30C G32U G67C G73C A87C | ≤ 0.026 |
| U2G G6A U63G | ≤ 0.026 |
| U2G G7A G19A A62U C80U | ≤ 0.026 |
| U2G G7A G26C C34G C75U | ≤ 0.026 |
| U2G G7C U17A | ≤ 0.026 |
| U2G G7U U58G C83U | ≤ 0.026 |
| U2G G10A C11G U20G A33G | ≤ 0.026 |
| U2G G10C C34A G85A | ≤ 0.026 |
| U2G G10C G15U C29U A31U | ≤ 0.026 |
| U2G G10U U63C G66A C72U A87C | ≤ 0.026 |
| U2G G15U | ≤ 0.026 |
| U2G G19C | ≤ 0.026 |
| U2G G19U C56G | ≤ 0.026 |

| Variant | nonsense suppression |
| --- | --- |
| U2G G19U C72U | ≤ 0.026 |
| U2G G25U | ≤ 0.026 |
| U2G G26A C77U | ≤ 0.026 |
| U2G G26C G69U G85U | ≤ 0.026 |
| U2G G28U | ≤ 0.026 |
| U2G G32A | ≤ 0.026 |
| U2G G32C | ≤ 0.026 |
| U2G G32C A54U G78A | ≤ 0.026 |
| U2G G32U | ≤ 0.026 |
| U2G G59U A89G | ≤ 0.026 |
| U2G G59U C64G G78A | ≤ 0.026 |
| U2G G65A | ≤ 0.026 |
| U2G G65C | ≤ 0.026 |
| U2G G66A U76G | ≤ 0.026 |
| U2G G67A | ≤ 0.026 |
| U2G G85A | ≤ 0.026 |
| U2G G85U | 0.0411 |
| U2G G86A | ≤ 0.026 |
| U2G G88U | ≤ 0.026 |
| U2G U4A U8C C75G C83A | ≤ 0.026 |
| U2G U4C A23C | ≤ 0.026 |
| U2G U4C C27U C81G C83G | ≤ 0.026 |
| U2G U4G | ≤ 0.026 |
